Reference: the supplement of paper PMC8948288
Shown are siRNA guide strands that differ only in the seed, positions 2 to 7.

Columns and labels:
H4 = assay: cell viability relative to siNT1 (ATP content); H4 human neuroglioma and GL261 mouse glioma; higher = less toxic; conditions: siRNA concentration 10 nM; 96 h; human
Method: (§1)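 Arrayed screen of all 4096 6mer seeds. Each seed sits at guide-strand positions 2-7 of a neutral 19mer siRNA backbone (siNT1-based, passenger strand 2'-O-methyl modified at positions 1-2 to block RISC loading, 3' DNA overhangs). The guide strand is built here as U + seed + ACAUGUAAACCA. Cells were reverse transfected in triplicate in 384-well plates (H4 at 10 nM, GL261 at 25 nM) with Lipofectamine RNAiMAX. Viability was read as ATP content (CellTiter-Glo) 96 h after transfection and normalised to siNT1 (%).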

GL261 = assay: as above; conditions: siRNA concentration 25 nM; 96 h; mouse
Method: as §1
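Further: cells reverse transfected with siRNA duplexes via lipid reagent, ATP read by luminescence, triplicate wells, values scaled to mean viability with non-targeting control siNT1.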

| Sequence | cell viability (H4) [%] | cell viability (GL261) [%] |
| --- | --- | --- |
| UCCUUACACAUGUAAACCA | 82.2 | 44.1 |
| UCCUUAGACAUGUAAACCA | 71.7 | 64 |
| UCCUUAUACAUGUAAACCA | 69.5 | 60.2 |
| UCCUUCAACAUGUAAACCA | 75.6 | 37.2 |
| UCCUUCCACAUGUAAACCA | 9.23 | 19.2 |
| UCCUUCGACAUGUAAACCA | 97.8 | 46.5 |
| UCCUUCUACAUGUAAACCA | 56.8 | 29.1 |
| UCCUUGAACAUGUAAACCA | 95.4 | 41.5 |
| UCCUUGCACAUGUAAACCA | 3.55 | 10.5 |
| UCCUUGGACAUGUAAACCA | 44.1 | 30 |
| UCCUUGUACAUGUAAACCA | 67.7 | 12.7 |
| UCCUUUAACAUGUAAACCA | 77.9 | 47.4 |
| UCCUUUCACAUGUAAACCA | 43.2 | 42.2 |
| UCCUUUGACAUGUAAACCA | 78 | 43 |
| UCCUUUUACAUGUAAACCA | 91.2 | 33.2 |
| UCGAAAAACAUGUAAACCA | 97.2 | 49.3 |
| UCGAAACACAUGUAAACCA | 105 | 40.9 |
| UCGAAAGACAUGUAAACCA | 106 | 50.7 |
| UCGAAAUACAUGUAAACCA | 95.6 | 59.3 |
| UCGAACAACAUGUAAACCA | 76.6 | 54.4 |
| UCGAACCACAUGUAAACCA | 66.7 | 33.2 |
| UCGAACGACAUGUAAACCA | 108 | 54.2 |
| UCGAACUACAUGUAAACCA | 84.4 | 49.7 |

| Sequence | cell viability (H4) [%] | cell viability (GL261) [%] |
| --- | --- | --- |
| UCGAAGAACAUGUAAACCA | 97.1 | 36.4 |
| UCGAAGCACAUGUAAACCA | 34.9 | 29.5 |
| UCGAAGGACAUGUAAACCA | 75.7 | 59.6 |
| UCGAAGUACAUGUAAACCA | 103 | 41.2 |
| UCGAAUAACAUGUAAACCA | 94.4 | 46.4 |
| UCGAAUCACAUGUAAACCA | 80.8 | 62.3 |
| UCGAAUGACAUGUAAACCA | 80.8 | 43.4 |
| UCGAAUUACAUGUAAACCA | 103 | 42.3 |
| UCGACAAACAUGUAAACCA | 96.3 | 52.4 |
| UCGACACACAUGUAAACCA | 71.9 | 50.9 |
| UCGACAGACAUGUAAACCA | 81.7 | 67.2 |
| UCGACAUACAUGUAAACCA | 84 | 54.5 |
| UCGACCAACAUGUAAACCA | 115 | 61.4 |
| UCGACCCACAUGUAAACCA | 74.5 | 32.4 |
| UCGACCGACAUGUAAACCA | 72.4 | 73.1 |
| UCGACCUACAUGUAAACCA | 96 | 42.7 |
| UCGACGAACAUGUAAACCA | 84.9 | 43.4 |
| UCGACGCACAUGUAAACCA | 65.8 | 23.4 |
| UCGACGGACAUGUAAACCA | 77.3 | 24.7 |
| UCGACGUACAUGUAAACCA | 113 | 76.7 |
| UCGACUAACAUGUAAACCA | 91.5 | 57.6 |
| UCGACUCACAUGUAAACCA | 92.5 | 17 |
| UCGACUGACAUGUAAACCA | 103 | 46.5 |

| Sequence | cell viability (H4) [%] | cell viability (GL261) [%] |
| --- | --- | --- |
| UCGACUUACAUGUAAACCA | 71.6 | 35.7 |
| UCGAGAAACAUGUAAACCA | 99.3 | 44 |
| UCGAGACACAUGUAAACCA | 77.1 | 27.3 |
| UCGAGAGACAUGUAAACCA | 81.7 | 40.3 |
| UCGAGAUACAUGUAAACCA | 80.8 | 30.6 |
| UCGAGCAACAUGUAAACCA | 75.5 | 54.4 |
| UCGAGCCACAUGUAAACCA | 39.5 | 22.8 |
| UCGAGCGACAUGUAAACCA | 99.5 | 33.3 |
| UCGAGCUACAUGUAAACCA | 38.9 | 16.8 |
| UCGAGGAACAUGUAAACCA | 78.2 | 32.3 |
| UCGAGGCACAUGUAAACCA | 49.1 | 6.6 |
| UCGAGGGACAUGUAAACCA | 65.5 | 28.5 |
| UCGAGGUACAUGUAAACCA | 85.9 | 32.8 |
| UCGAGUAACAUGUAAACCA | 109 | 68 |
| UCGAGUCACAUGUAAACCA | 59.9 | 25.9 |
| UCGAGUGACAUGUAAACCA | 72.7 | 55.8 |
| UCGAGUUACAUGUAAACCA | 93.5 | 37.2 |
| UCGAUAAACAUGUAAACCA | 92.5 | 102 |
| UCGAUACACAUGUAAACCA | 94.5 | 27.8 |
| UCGAUAGACAUGUAAACCA | 93.6 | 52.2 |
| UCGAUAUACAUGUAAACCA | 90.4 | 50 |
| UCGAUCAACAUGUAAACCA | 72.2 | 59.3 |
| UCGAUCCACAUGUAAACCA | 67.3 | 19.5 |

| Sequence | cell viability (H4) [%] | cell viability (GL261) [%] |
| --- | --- | --- |
| UCGAUCGACAUGUAAACCA | 90.8 | 53.8 |
| UCGAUCUACAUGUAAACCA | 85.7 | 56.2 |
| UCGAUGAACAUGUAAACCA | 106 | 38.9 |
| UCGAUGCACAUGUAAACCA | 31.3 | 10.8 |
| UCGAUGGACAUGUAAACCA | 72.5 | 30.7 |
| UCGAUGUACAUGUAAACCA | 81.6 | 38 |
| UCGAUUAACAUGUAAACCA | 110 | 59 |
| UCGAUUCACAUGUAAACCA | 80.8 | 31.7 |
| UCGAUUGACAUGUAAACCA | 110 | 51.8 |
| UCGAUUUACAUGUAAACCA | 72.8 | 40.7 |
| UCGCAAAACAUGUAAACCA | 89.8 | 38.7 |
| UCGCAACACAUGUAAACCA | 89.8 | 31.5 |
| UCGCAAGACAUGUAAACCA | 120 | 48.3 |
| UCGCAAUACAUGUAAACCA | 78.4 | 39.4 |
| UCGCACAACAUGUAAACCA | 112 | 15.4 |
| UCGCACCACAUGUAAACCA | 46.2 | 25.8 |
| UCGCACGACAUGUAAACCA | 74.7 | 28.2 |
| UCGCACUACAUGUAAACCA | 71.1 | 9.71 |
| UCGCAGAACAUGUAAACCA | 91.3 | 55.9 |
| UCGCAGCACAUGUAAACCA | 15.9 | 14.2 |
| UCGCAGGACAUGUAAACCA | 44.8 | 31.2 |
| UCGCAGUACAUGUAAACCA | 54.5 | 14 |
| UCGCAUAACAUGUAAACCA | 73.8 | 38 |

| Sequence | cell viability (H4) [%] | cell viability (GL261) [%] |
| --- | --- | --- |
| UCGCAUCACAUGUAAACCA | 62.2 | 23.7 |
| UCGCAUGACAUGUAAACCA | 92.1 | 35.6 |
| UCGCAUUACAUGUAAACCA | 74.2 | 44 |
| UCGCCAAACAUGUAAACCA | 101 | 50.3 |
| UCGCCACACAUGUAAACCA | 58 | 22.3 |
| UCGCCAGACAUGUAAACCA | 60.8 | 29.7 |
| UCGCCAUACAUGUAAACCA | 73.1 | 36.2 |
| UCGCCCAACAUGUAAACCA | 72.8 | 45 |
| UCGCCCCACAUGUAAACCA | 64.4 | 23.2 |
| UCGCCCGACAUGUAAACCA | 67.2 | 39.2 |
| UCGCCCUACAUGUAAACCA | 103 | 22.1 |
| UCGCCGAACAUGUAAACCA | 110 | 36.1 |
| UCGCCGCACAUGUAAACCA | 13.7 | 3.83 |
| UCGCCGGACAUGUAAACCA | 53.1 | 30.9 |
| UCGCCGUACAUGUAAACCA | 60.3 | 40.5 |
| UCGCCUAACAUGUAAACCA | 72.7 | 42.7 |
| UCGCCUCACAUGUAAACCA | 24.8 | 29.5 |
| UCGCCUGACAUGUAAACCA | 87.7 | 15.2 |
| UCGCCUUACAUGUAAACCA | 62.1 | 37.9 |
| UCGCGAAACAUGUAAACCA | 79.7 | 39.7 |
| UCGCGACACAUGUAAACCA | 79.5 | 38.9 |
